What all share (test): two-hybrid; ProQuest two-hybrid system, yeast strain MaV203 double-transformed with bait (pDEST32) and prey (pDEST22); growth on SC-Leu-Trp plates lacking histidine with 10, 25, 50 mM 3-aminotriazol, assessed after 2-5 days; for homodimers both copies carried the mutation
The target of test [1] is human diamin acetyltransferase 1 (SAT1), wild-type (human) (UniProt P21673).
The target of test [2] is human diamin acetyltransferase 1 (SAT1), Ser-149 Alanine mutant (human) (UniProt P21673).
Test [3] has as its target human diamin acetyltransferase 1 (SAT1), Ser-149 Glutamate mutant (human) (UniProt P21673).
The target in another test is T1, DffB (UniProt O54788).
T1 sequence: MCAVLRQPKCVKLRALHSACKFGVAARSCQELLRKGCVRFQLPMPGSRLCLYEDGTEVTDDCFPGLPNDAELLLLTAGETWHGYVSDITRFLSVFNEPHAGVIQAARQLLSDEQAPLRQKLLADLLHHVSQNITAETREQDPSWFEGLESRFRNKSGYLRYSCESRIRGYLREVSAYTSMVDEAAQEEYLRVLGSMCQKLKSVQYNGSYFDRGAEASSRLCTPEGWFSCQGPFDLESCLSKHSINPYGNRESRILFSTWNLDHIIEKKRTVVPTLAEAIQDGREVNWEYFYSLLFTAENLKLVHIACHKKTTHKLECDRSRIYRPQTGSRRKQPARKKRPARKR

Sequences of proteins named here, by UniProt entry; tags and fusion partners are left off. A change or cut given only in a name is not applied to a line headed by its entry. A line that says so, or that is headed by a name, gives the form on record, which may keep a tag or linker.
UniProt P21673: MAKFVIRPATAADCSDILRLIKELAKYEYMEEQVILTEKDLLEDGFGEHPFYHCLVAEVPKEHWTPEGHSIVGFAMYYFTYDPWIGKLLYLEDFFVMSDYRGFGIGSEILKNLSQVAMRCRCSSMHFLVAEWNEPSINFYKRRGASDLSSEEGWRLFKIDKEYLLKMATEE
human diamin acetyltransferase 1 (SAT1), Ser-149 Alanine mutant (P21673, form named): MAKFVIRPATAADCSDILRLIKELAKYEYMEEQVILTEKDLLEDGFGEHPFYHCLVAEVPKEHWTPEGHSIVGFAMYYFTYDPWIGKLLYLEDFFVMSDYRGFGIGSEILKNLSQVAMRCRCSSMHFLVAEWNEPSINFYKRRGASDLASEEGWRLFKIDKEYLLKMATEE
human diamin acetyltransferase 1 (SAT1), Ser-149 Glutamate mutant (P21673, form named): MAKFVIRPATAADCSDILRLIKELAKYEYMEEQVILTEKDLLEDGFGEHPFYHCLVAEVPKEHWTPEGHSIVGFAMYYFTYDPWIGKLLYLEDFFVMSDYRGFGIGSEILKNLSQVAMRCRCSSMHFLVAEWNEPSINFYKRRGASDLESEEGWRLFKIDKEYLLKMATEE

In test [4] the target is yeast Adenine phosphoribosyltransferase (APT1), wild-type (yeast) (UniProt P49435).

Numbering of substitutions follows the chain as printed. No constants are given. Whether binding was seen depends on the method and setting. Some results given as binding are weak or reduced against the parent protein; the word gives no strength.

For “human diamin acetyltransferase 1 (SAT1), wild-type (from UniProt P21673 1-171) (enzyme)”, the binding entry in test [1] is “binds”.

Turning to “human diamin acetyltransferase 1 (SAT1), Ser-149 Alanine mutant (from UniProt P21673 1-171) (enzyme)”, the binding result in test [2] was “no binding”.

On to “human diamin acetyltransferase 1 (SAT1), Ser-149 Glutamate mutant (from UniProt P21673 1-171) (enzyme)”, for which the binding result in test [3] is “binds”.

B1: Mouse DNA fragmentation factor A (DffA), wild-type (protein, UniProt O54786 1-331)
chain: MELSRGASAPDPDDVRPLKPCLLRRNHSRDQHGVAASSLEELRSKACELLAIDKSLTPITLVLAEDGTIVDDDDYFLCLPSNTKFVALACNEKWIYNDSDGGTAWVSQESFEADEPDSRAGVKWKNVARQLKEDLSSIILLSEEDLQALIDIPCAELAQELCQSCATVQGLQSTLQQVLDQREEARQSKQLLELYLQALEKEGNILSNQKESKAALSEELDAVDTGVGREMASEVLLRSQILTTLKEKPAPELSLSSQDLESVSKEDPKALAVALSWDIRKAETVQQACTTELALRLQQVQSLHSLRNLSARRSPLPGEPQRPKRAKRDSS
Turning to B1, the binding result with DffB is given as “binds”.

B2: Mouse DNA fragmentation factor A (DffA), Thr-68 Glutamate mutant (protein, UniProt O54786 1-331)
chain: B1 chain with T68E
Regarding B2, the binding entry with DffB is recorded as “no binding”.

B3: Mouse DNA fragmentation factor A (DffA), Thr-68 Alanine mutant (protein, UniProt O54786 1-331)
chain: B1 chain with T68A
For B3, in the test with DffB, the binding result is “binds”.

B4: yeast Adenine phosphoribosyltransferase (APT1), wild-type (enzyme, UniProt P49435 1-187)
chain: MSIASYAQELKLALHQYPNFPSEGILFEDFLPIFRNPGLFQKLIDAFKLHLEEAFPEVKIDYIVGLESRGFLFGPTLALALGVGFVPVRKAGKLPGECFKATYEKEYGSDLFEIQKNAIPAGSNVIIVDDIIATGGSAAAAGELVEQLEANLLEYNFVMELDFLKGRSKLNAPVFTLLNAQKEALKK
Take B4: the binding result in test [4] was “binds”.

For the origin of these results see publication PMC5386296.
